Reference: the antibiotic and cytotoxicity screens of Wong et al. (2023)
This is one part of the list.

Key:
[1] = system: HSkMC (human skeletal muscle cells); test: cytotoxicity call (relative viability < 0.9); settings: 10 µM
[2] = system: HepG2; test: cytotoxicity call (relative viability < 0.9); settings: 10 µM
[3] = system: S. aureus RN4220; test: growth inhibition call (relative growth <= 0.2); settings: 50 µM

Compound	cytotoxicity call [1]	cytotoxicity call [2]	growth inhibition call [3]
C[C@@H]1CCCCO[C@@H](CN(C)Cc2ccccc2)[C@H](C)CN([C@H](C)CO)C(=O)c2cc(NS(=O)(=O)c3ccc(Cl)cc3)ccc2O1	inactive	inactive	inactive
C[C@H]1CN([C@@H](C)CO)C(=O)Cc2cc(NS(=O)(=O)c3cn(C)cn3)ccc2O[C@@H]1CN(C)Cc1ccc2c(c1)OCO2	inactive	inactive	inactive
C[C@@H]1CCCCO[C@@H](CN(C)C(=O)Nc2ccccc2)[C@@H](C)CN([C@@H](C)CO)C(=O)c2cc(NS(=O)(=O)c3ccc(Cl)cc3)ccc2O1	inactive	inactive	inactive
CC(C)CC#Cc1ccc2c(c1)O[C@@H](CN(C)CC1CCOCC1)[C@@H](C)CN([C@@H](C)CO)S2(=O)=O	inactive	inactive	inactive
COc1ccc(CN(C)C[C@H]2OCCCC[C@@H](C)Oc3ccc(NC(=O)c4ccncc4)cc3C(=O)N([C@H](C)CO)C[C@@H]2C)cc1	inactive	inactive	inactive
CCOC(=O)CCCCCC(=O)Nc1ccc2c(c1)C(=O)N([C@H](C)CO)C[C@@H](C)[C@@H](CN(C)C(=O)CCC(F)(F)F)OCCCC[C@H](C)O2	inactive	inactive	inactive
CC(C)(C(=O)O)c1ccc([C@@H](O)CCCN2CCC(C(O)(c3ccccc3)c3ccccc3)CC2)cc1	inactive	inactive	inactive
C[C@@H]1CN([C@@H](C)CO)C(=O)c2cc(C#Cc3cccc(F)c3)cnc2O[C@@H]1CN(C)CC1CCOCC1	inactive	inactive	inactive
C[C@@H]1CCCCO[C@@H](CN(C)Cc2ccc(Cl)c(Cl)c2)[C@H](C)CN([C@@H](C)CO)C(=O)c2cc(N(C)C)ccc2O1	inactive	inactive	inactive
C[C@@H]1CN([C@@H](C)CO)C(=O)c2cc(NC(=O)Nc3ccccc3)ccc2O[C@@H](C)CCCCO[C@@H]1CN(C)Cc1ccc2c(c1)OCO2	inactive	active	inactive
C[C@@H]1CCCCO[C@@H](CN(C)Cc2ccc(C(F)(F)F)cc2)[C@H](C)CN([C@@H](C)CO)C(=O)c2cc(NC(=O)Cc3ccccc3)ccc2O1	inactive	inactive	inactive
C[C@H]1CN([C@@H](C)CO)C(=O)c2cc(NC(=O)CCCCCC(=O)Nc3ccccc3N)ccc2O[C@H]1CN(C)Cc1ccc(C(F)(F)F)cc1	inactive	inactive	inactive
COc1ccc(NC(=O)Nc2ccc3c(c2)C(=O)N([C@H](C)CO)C[C@H](C)[C@H](CN(C)Cc2ccc(-c4ccccc4)cc2)O3)cc1	inactive	active	inactive
C[C@@H]1CN([C@@H](C)CO)C(=O)c2cc(NC(=O)Nc3ccc(F)cc3)ccc2O[C@@H]1CN(C)Cc1ccc(Oc2ccccc2)cc1	active	active	inactive
O=C(C[C@H]1CC[C@@H]2[C@H](COC[C@H](O)CN2S(=O)(=O)c2ccc(F)cc2)O1)N[C@@H]1CCN(Cc2ccccc2)C1	inactive	inactive	inactive
C[C@@H]1CN([C@H](C)CO)C(=O)c2cc(NC(=O)Nc3cccc4ccccc34)ccc2O[C@@H](C)CCCCO[C@@H]1CN(C)C(=O)Cc1ccccc1	inactive	inactive	inactive
C[C@H]1CN([C@@H](C)CO)C(=O)Cc2cc(NS(=O)(=O)c3ccc(F)cc3)ccc2O[C@H]1CN(C)Cc1ccc(-c2ccccc2)cc1	active	inactive	inactive
C[C@@H]1CN([C@@H](C)CO)C(=O)c2cccc(NC(=O)NC3CCCCC3)c2O[C@H]1CN(C)S(=O)(=O)c1cn(C)cn1	inactive	inactive	inactive
COC(=O)C1=C(C)NC(C)=C(C(=O)OCCCN2CCC(c3ccccc3)(c3ccccc3)CC2)[C@H]1c1cccc([N+](=O)[O-])c1	active	active	inactive
N=C(N=C(N)N)N1CCOCC1	inactive	inactive	inactive
COc1ncccc1C#N	inactive	inactive	inactive
CCCC(=O)Nc1ccc2c(c1)OC[C@@H](C)N(S(=O)(=O)c1cn(C)cn1)C[C@@H](C)[C@H](OC)CN(C)C2=O	inactive	inactive	inactive
COc1ccc(CN(C)C[C@H]2OCCCC[C@H](C)Oc3ccc(NC(=O)Cc4ccccc4)cc3C(=O)N([C@@H](C)CO)C[C@@H]2C)cc1	inactive	inactive	inactive
CCC(=O)N1CCN=C1SC	inactive	inactive	inactive
C[C@@H]1CN([C@H](C)CO)C(=O)c2cc(NC(=O)CCN3CCOCC3)ccc2O[C@@H]1CN(C)C(=O)NC1CCCCC1	inactive	inactive	inactive
